Experimental data taken from the supplement of paper PMC4604168 (melanoma cell lines).
The other results are listed elsewhere or left out. Many values rest on one well or one pass, so single values are uncertain.

Assays:
Test in all cases: cell count relative to DMSO control; melanoma cells; higher = more viable cells
Details in all cases: library dose: low library concentration; 72 h
[1] = system: COLO792
[2] = system: COLO800
[3] = system: COLO829
[4] = system: G361
[5] = system: IPC-298
[6] = system: IST-MEL1
[7] = system: LB2518-MEL
[8] = system: LOXIMVI
[9] = system: MEL-HO
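Also: cell number obtained by counting DAPI-stained nuclei in high-throughput microscope images with image analysis software, screen run in 1,536-well plates.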

CC[C@]1(O)C[C@H]2CN(CCc3c([nH]c4ccccc34)[C@@](C(=O)OC)(c3cc4c(cc3OC)N(C=O)[C@H]3[C@@](O)(C(=O)OC)[C@H](OC(C)=O)[C@]5(CC)C=CCN6CC[C@]43[C@@H]65)C2)C1 [vincristine] + O=S(=O)(c1ccccc1)N(CC(F)(F)F)c1ccc(C(O)(C(F)(F)F)C(F)(F)F)cc1 [T0901317] (first compound 0.0001 µM, partner dose 1.4 µM)
cell count [1]: 106%
cell count [2]: 74.1%
cell count [3]: 63.6%
cell count [4]: 90%
cell count [5]: 88%
cell count [6]: 98.2%
cell count [7]: 83.3%
cell count [8]: 102%
cell count [9]: 104%

Cc1cc(Nc2cc(N3CCN(C)CC3)nc(Sc3ccc(NC(=O)C4CC4)cc3)n2)n[nH]1 [Tozasertib] + COc1cc2c(Oc3ccc4[nH]c(C)cc4c3F)ncnc2cc1OCCCN1CCCC1 [cediranib] (first compound 0.006 µM, partner dose 0.4 µM)
cell count [1]: 84.5%
cell count [2]: 110%
cell count [3]: 97.8%
cell count [4]: 101%
cell count [5]: 98%
cell count [6]: 102%
cell count [7]: 84.8%
cell count [8]: 115%
cell count [9]: 105%

N#CC[C@H](C1CCCC1)n1cc(-c2ncnc3[nH]ccc23)cn1 [ruxolitinib] + Cc1cc(N2CCOCC2)cc2[nH]c(-c3c(NC[C@@H](O)c4cccc(Cl)c4)cc[nH]c3=O)nc12 [BMS536924] (first compound 1 µM, partner dose 0.2 µM)
cell count [1]: 99.2%
cell count [2]: 129%
cell count [3]: 134%
cell count [4]: 89.5%
cell count [5]: 106%
cell count [6]: 108%
cell count [7]: 118%
cell count [8]: 132%
cell count [9]: 96.8%

N#CC[C@H](C1CCCC1)n1cc(-c2ncnc3[nH]ccc23)cn1 [ruxolitinib] + O=C(CCCCCCC(=O)Nc1ccccc1)NO [vorinostat] (first compound 1 µM, partner dose 0.08 µM)
cell count [1]: 98.2%
cell count [2]: 187%
cell count [3]: 118%
cell count [4]: 106%
cell count [5]: 107%
cell count [6]: 96%
cell count [7]: 125%
cell count [8]: 117%
cell count [9]: 92.4%

CC[C@]1(O)C[C@H]2CN(CCc3c([nH]c4ccccc34)[C@@](C(=O)OC)(c3cc4c(cc3OC)N(C=O)[C@H]3[C@@](O)(C(=O)OC)[C@H](OC(C)=O)[C@]5(CC)C=CCN6CC[C@]43[C@@H]65)C2)C1 [vincristine] + CCCCCCCCCCCC1=C(O)C(=O)C=C(O)C1=O [Embelin] (first compound 0.0001 µM, partner dose 1.2 µM)
cell count [1]: 98.5%
cell count [2]: 76.2%
cell count [3]: 71.9%
cell count [4]: 102%
cell count [5]: 101%
cell count [6]: 109%
cell count [7]: 99.9%
cell count [8]: 73.9%
cell count [9]: 105%

N#CC[C@H](C1CCCC1)n1cc(-c2ncnc3[nH]ccc23)cn1 [ruxolitinib] + CCCCCCCCCCCC1=C(O)C(=O)C=C(O)C1=O [Embelin] (first compound 1 µM, partner dose 1.2 µM)
cell count [1]: 97.8%
cell count [2]: 241%
cell count [3]: 130%
cell count [4]: 106%
cell count [5]: 99.3%
cell count [6]: 90.3%
cell count [7]: 128%
cell count [8]: 93.8%
cell count [9]: 101%

Cc1cc(Nc2cc(N3CCN(C)CC3)nc(Sc3ccc(NC(=O)C4CC4)cc3)n2)n[nH]1 [Tozasertib] + OCCn1cc(-c2cnc3nnn(Cc4ccc5ncccc5c4)c3n2)cn1 [PF04217903] (first compound 0.006 µM, partner dose 1 µM)
cell count [1]: 97.4%
cell count [2]: 82.9%
cell count [3]: 110%
cell count [4]: 91.9%
cell count [5]: 96.6%
cell count [6]: 94.7%
cell count [7]: 98.2%
cell count [8]: 95.2%
cell count [9]: 105%

CC[C@]1(O)C[C@H]2CN(CCc3c([nH]c4ccccc34)[C@@](C(=O)OC)(c3cc4c(cc3OC)N(C=O)[C@H]3[C@@](O)(C(=O)OC)[C@H](OC(C)=O)[C@]5(CC)C=CCN6CC[C@]43[C@@H]65)C2)C1 [vincristine] + O=C(CCCCCCC(=O)Nc1ccccc1)NO [vorinostat] (first compound 0.0001 µM, partner dose 0.08 µM)
cell count [1]: 93.6%
cell count [2]: 147%
cell count [3]: 91%
cell count [4]: 101%
cell count [5]: 92.4%
cell count [6]: 91.7%
cell count [7]: 85.1%
cell count [8]: 52%
cell count [9]: 98.9%

CC[C@]1(O)C[C@H]2CN(CCc3c([nH]c4ccccc34)[C@@](C(=O)OC)(c3cc4c(cc3OC)N(C=O)[C@H]3[C@@](O)(C(=O)OC)[C@H](OC(C)=O)[C@]5(CC)C=CCN6CC[C@]43[C@@H]65)C2)C1 [vincristine] + O=C(Nc1cccc(Cl)c1)Nc1ncc(CCNc2ncnc3ccsc23)s1 [SNS314] (first compound 0.0001 µM, partner dose 0.0008 µM)
cell count [1]: 108%
cell count [2]: 69.8%
cell count [3]: 94.9%
cell count [4]: 92.5%
cell count [5]: 97.9%
cell count [6]: 89%
cell count [7]: 75.8%
cell count [8]: 125%
cell count [9]: 91%

Cc1cc(Nc2cc(N3CCN(C)CC3)nc(Sc3ccc(NC(=O)C4CC4)cc3)n2)n[nH]1 [Tozasertib] + C[C@@H]1CCN(C(=O)CC#N)C[C@@H]1N(C)c1ncnc2[nH]ccc12 [CP690550] (first compound 0.006 µM, partner dose 1 µM)
cell count [1]: 89.5%
cell count [2]: 127%
cell count [3]: 86.4%
cell count [4]: 96.3%
cell count [5]: 96.2%
cell count [6]: 104%
cell count [7]: 103%
cell count [8]: 94.6%
cell count [9]: 89.1%

N#CC[C@H](C1CCCC1)n1cc(-c2ncnc3[nH]ccc23)cn1 [ruxolitinib] + COc1ccc2c(c1)CCC1C2CCC2(C)C(NCCCCCCN3C(=O)C=CC3=O)CCC12 [U73122] (first compound 1 µM, partner dose 0.4 µM)
cell count [1]: 98.8%
cell count [2]: 127%
cell count [3]: 82.6%
cell count [4]: 94.9%
cell count [5]: 99.5%
cell count [6]: 93.7%
cell count [7]: 114%
cell count [8]: 111%
cell count [9]: 88.9%

N#CC[C@H](C1CCCC1)n1cc(-c2ncnc3[nH]ccc23)cn1 [ruxolitinib] + Oc1cc(-c2nc(-c3ccccc3)[nH]c2-c2ccncc2)ccc1Cl [L779450] (first compound 1 µM, partner dose 0.2 µM)
cell count [1]: 121%
cell count [2]: 199%
cell count [3]: 149%
cell count [4]: 109%
cell count [5]: 95.5%
cell count [6]: 97.9%
cell count [7]: 113%
cell count [8]: 181%
cell count [9]: 77.5%

Cc1cc(Nc2cc(N3CCN(C)CC3)nc(Sc3ccc(NC(=O)C4CC4)cc3)n2)n[nH]1 [Tozasertib] + O=S(=O)(c1ccccc1)N(CC(F)(F)F)c1ccc(C(O)(C(F)(F)F)C(F)(F)F)cc1 [T0901317] (first compound 0.006 µM, partner dose 1.4 µM)
cell count [1]: 94.6%
cell count [2]: 69.3%
cell count [3]: 73%
cell count [4]: 74.9%
cell count [5]: 92.6%
cell count [6]: 97.7%
cell count [7]: 96.7%
cell count [8]: 91.2%
cell count [9]: 85.3%

CC[C@]1(O)C[C@H]2CN(CCc3c([nH]c4ccccc34)[C@@](C(=O)OC)(c3cc4c(cc3OC)N(C=O)[C@H]3[C@@](O)(C(=O)OC)[C@H](OC(C)=O)[C@]5(CC)C=CCN6CC[C@]43[C@@H]65)C2)C1 [vincristine] + CN(NC(=O)CC(=O)NN(C)C(=S)c1ccccc1)C(=S)c1ccccc1 [STA4783] (first compound 0.0001 µM, partner dose 0.006 µM)
cell count [1]: 80.6%
cell count [2]: 51.7%
cell count [3]: 67%
cell count [4]: 90.8%
cell count [5]: 96.6%
cell count [6]: 78.6%
cell count [7]: 80.7%
cell count [8]: 62.7%
cell count [9]: 97.1%

N#CC[C@H](C1CCCC1)n1cc(-c2ncnc3[nH]ccc23)cn1 [ruxolitinib] + Cc1cc([N+](=O)[O-])ccc1NS(=O)(=O)c1cc(Cl)ccc1Cl [FH535] (first compound 1 µM, partner dose 1 µM)
cell count [1]: 95.8%
cell count [2]: 79.2%
cell count [3]: 111%
cell count [4]: 87.6%
cell count [5]: 95.2%
cell count [6]: 97.8%
cell count [7]: 125%
cell count [8]: 88.1%
cell count [9]: 89.4%

Cc1cc(Nc2cc(N3CCN(C)CC3)nc(Sc3ccc(NC(=O)C4CC4)cc3)n2)n[nH]1 [Tozasertib] + O=C(CCCCCCC(=O)Nc1ccccc1)NO [vorinostat] (first compound 0.006 µM, partner dose 0.08 µM)
cell count [1]: 87%
cell count [2]: 113%
cell count [3]: 94.6%
cell count [4]: 79.2%
cell count [5]: 105%
cell count [6]: 95.5%
cell count [7]: 92.1%
cell count [8]: 82.4%
cell count [9]: 90.6%

Cc1cc(Nc2cc(N3CCN(C)CC3)nc(Sc3ccc(NC(=O)C4CC4)cc3)n2)n[nH]1 [Tozasertib] + NC(=O)Nc1cc(-c2cccc(F)c2)sc1C(=O)N[C@H]1CCCNC1 [AZD7762] (first compound 0.006 µM, partner dose 0.02 µM)
cell count [1]: 96%
cell count [2]: 83.8%
cell count [3]: 100%
cell count [4]: 97.6%
cell count [5]: 105%
cell count [6]: 100%
cell count [7]: 110%
cell count [8]: 139%
cell count [9]: 100%

Cc1cc(Nc2cc(N3CCN(C)CC3)nc(Sc3ccc(NC(=O)C4CC4)cc3)n2)n[nH]1 [Tozasertib] + CN(NC(=O)CC(=O)NN(C)C(=S)c1ccccc1)C(=S)c1ccccc1 [STA4783] (first compound 0.006 µM, partner dose 0.006 µM)
cell count [1]: 57.9%
cell count [2]: 48.6%
cell count [3]: 59.1%
cell count [4]: 79.4%
cell count [5]: 96.1%
cell count [6]: 74.7%
cell count [7]: 73.1%
cell count [8]: 58%
cell count [9]: 90.7%

CC[C@]1(O)C[C@H]2CN(CCc3c([nH]c4ccccc34)[C@@](C(=O)OC)(c3cc4c(cc3OC)N(C=O)[C@H]3[C@@](O)(C(=O)OC)[C@H](OC(C)=O)[C@]5(CC)C=CCN6CC[C@]43[C@@H]65)C2)C1 [vincristine] + Cc1cc([N+](=O)[O-])ccc1NS(=O)(=O)c1cc(Cl)ccc1Cl [FH535] (first compound 0.0001 µM, partner dose 1 µM)
cell count [1]: 102%
cell count [2]: 182%
cell count [3]: 62.9%
cell count [4]: 82.3%
cell count [5]: 86.6%
cell count [6]: 83.3%
cell count [7]: 71.9%
cell count [8]: 84.2%
cell count [9]: 88.2%
